# The full ranking holds about 33,000 sequences; the median of “E-score (-0.5 to 0.5)” is about -0.012, and the highest 2% start at about 0.27. The list shows a part of the results.
# Target: T1, Vhr1 (UniProt P40522)
# T1 sequence: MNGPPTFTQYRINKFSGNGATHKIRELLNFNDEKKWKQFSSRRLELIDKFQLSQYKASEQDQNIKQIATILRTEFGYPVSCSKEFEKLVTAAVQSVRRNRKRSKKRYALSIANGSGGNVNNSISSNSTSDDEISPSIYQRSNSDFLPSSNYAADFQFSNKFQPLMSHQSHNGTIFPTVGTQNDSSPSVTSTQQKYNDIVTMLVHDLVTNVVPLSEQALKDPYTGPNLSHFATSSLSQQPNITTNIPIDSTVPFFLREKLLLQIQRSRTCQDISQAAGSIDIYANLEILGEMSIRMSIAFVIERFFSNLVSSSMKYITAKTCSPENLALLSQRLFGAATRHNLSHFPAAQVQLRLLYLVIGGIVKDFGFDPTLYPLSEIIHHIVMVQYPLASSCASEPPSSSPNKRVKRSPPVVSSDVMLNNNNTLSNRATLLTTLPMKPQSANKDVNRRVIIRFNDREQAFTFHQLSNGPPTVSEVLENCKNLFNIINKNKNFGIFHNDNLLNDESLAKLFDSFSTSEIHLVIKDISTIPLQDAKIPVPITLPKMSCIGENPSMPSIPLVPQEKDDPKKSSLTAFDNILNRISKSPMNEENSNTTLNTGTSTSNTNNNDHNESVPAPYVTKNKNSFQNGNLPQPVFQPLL
# Assay: PBM E-score (8-mer binding enrichment) (E-score (-0.5 to 0.5)); higher = stronger / more preferred TF binding; most listed sequences are background and not binding sites
# Conditions: protein concentration: 200 nM; construct: GST-full length
# In short: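 For each ungapped eight-base word taken together with its reverse complement, the Universal PBM Analysis Suite assigned an E-score. Binding data came from GST-tagged yeast transcription factors, applied at about 100-200 nM, on universal all-10-mer Agilent arrays made double-stranded by primer extension. Fluorescent anti-GST marked bound protein, and scans were normalised with masliner.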
row,Sequence,PBM E-score
1,AGAATCCC,0.0522
2,CTCGGGGC,0.0244
3,GGGCAAAA,0.0176
4,ACGGGCAT,-0.152
5,GCTAGAGC,-0.0223
6,GCAGGGAC,-0.154
7,GAACGCTA,-0.165
8,GTATAGCA,0.0458
9,CCTTCCAA,-0.135
10,CATAGGCG,-0.221
11,TACACCTA,0.0746
12,GTACGGAA,0.105
13,AGACTGTG,-0.0209
14,ATATCCGC,0.0132
15,AGTTGTTC,-0.0542
16,CAAAAAGG,-0.259
17,CTAATGTC,0.0475
18,TACCCGTA,0.0302
19,CTCCTACC,-0.16
20,ATATCGGA,0.0628
21,CAGCCTGG,0.0394
22,CGCGTAAC,-0.152
23,ATTAAAGC,-0.0475
24,TCACTCCA,0.0755
25,CAGCGCTC,-0.141

row,Sequence,PBM E-score
1,CGGTCAGA,0.0206
2,CTTCGCGA,0.0137
3,AAAAGGGT,-0.0575
4,TCGGATAA,-0.0382
5,TCTTATAA,-0.0642
6,ATCGCCGA,-0.0607
7,AGTCCCCA,0.0252
8,ATCAGCCA,0.0307
9,TACGGGGA,-0.0282
10,AGGCCATC,-0.0902
11,AAATGGAC,-0.0108
12,AGCAGTTC,-0.0478
13,TCAGGTAA,0.0977
14,CGTTATAA,-0.00255
15,GGGGGTAA,-0.0654
16,AAGTTAGT,-0.0445
17,ACAGGGTA,0.122
18,GGGGGGGA,-0.124
19,AAGTAACG,-0.0369
20,GATGAGGA,-0.143
21,GGATTGAA,0.0648
22,AGGCGTTC,-0.296
23,ATTCGAGC,-0.0346
24,GTATGAAA,0.131
25,TATAGACA,0.0913

row,Sequence,PBM E-score
1,CCCCTGCC,0.00437
2,AACAGGGT,-0.0439
3,GAATACGA,0.0524
4,TCACATGA,0.129
5,GGGGACAA,-0.0606
6,CACGAGTA,0.0881
7,AACTACTG,0.142
8,ATGGATAG,0.0432
9,AGTTGCGC,-0.0359
10,ATAGACAA,0.0968
11,ACCCCCCC,-0.176
12,ACCCCGGC,-0.00836
13,CTCAAGTA,-0.141
14,AGGCCAGC,-0.0611
15,GATAACGC,-0.0925
16,CAGATACA,0.222
17,CGATAACG,-0.153
18,ACCAAAAT,0.089
19,CATGCATC,0.28
20,CGCTGCCA,-0.0656
21,GTCTTTGA,-0.199
22,CCACGATC,-0.0106
23,ACGTTTAT,0.0767
24,AGCAGACG,-0.00622
25,TAGGTACA,-0.218

row,Sequence,PBM E-score
1,CAACATCA,0.148
2,CCTGCGGA,-0.0419
3,AGTATAAG,0.109
4,CGACAGTC,-0.102
5,CGAGAGTA,0.0247
6,AGCAGCTG,0.0423
7,AAACCGTT,-0.0781
8,GTAGGCGA,0.097
9,GTAGCCAA,-0.0795
10,CCAGAGAG,-0.0114
11,CGCTGGCC,-0.0284
12,AGGATGGC,0.124
13,ACACTCCG,-0.0633
14,CAGAGTGA,0.0508
15,AACTCGAT,0.081
16,AAGACCAC,-0.19
17,CTCATTGA,-0.127
18,CAGTGTGC,-0.0758
19,ATAAGATA,0.0723
20,ACAACTCA,0.192
21,CCAGACGG,-0.0493
22,CGATGCCC,-0.165
23,ATTGGAGA,-0.115
24,AATTGGAA,-0.0986
25,CGGTGCGA,0.151

row,Sequence,PBM E-score
1,AATCACCG,0.266
2,AATAGGAA,0.00091
3,TGCCGAAA,-0.207
4,CCGCTATA,-0.0648
5,AATTCGAT,-0.0685
6,GTACTCAA,0.198
7,ACGTGGGA,0.0803
8,AGGCTATC,0.0879
9,AGAGGTTA,-0.0475
10,CTGGGATC,-0.00223
11,GCCCGGAA,0.0467
12,ACGTCCTG,-0.152
13,CAGAATAG,0.0389
14,CATTATAC,0.208
15,CTCATTCA,0.0763
16,ATGAGCCC,0.077
17,GCGTTGGA,-0.0693
18,CCAGCCTC,-0.104
19,CTTAAGAA,-0.116
20,GAGCCTGC,0.0786
21,AAACGGAC,-0.129
22,TAAAGCCA,-0.0838
23,TCATGTCA,0.0112
24,CCAAGTCC,-0.089
25,AAGGCGCC,0.0449

row,Sequence,PBM E-score
1,CCAGTGAG,0.127
2,CCTGTCCA,-0.219
3,AATCGTCC,0.0027
4,CTAACATC,-0.00558
5,ACAAGGCT,-0.147
6,CCACCGCG,0.131
7,TACGTCGA,0.0188
8,TACTCCGA,0.174
9,GGGGTTTA,-0.0399
10,ACCCTACT,-0.0281
11,AAGGGGCA,-0.253
12,ATTATGGA,0.0765
13,AAATGGGT,-0.035
14,CTGATCTC,-0.0483
15,CAAATCTC,-0.0704
16,GCACAACC,0.145
17,CAGTTGCC,-0.0707
18,CAAGCTGA,0.14
19,CTTCCTTA,-0.126
20,CCCTGTGC,0.0798
21,GATGTTGA,0.0996
22,CCGGGGGA,0.0547
23,AGACAGGA,0.0608
24,GAGGCATC,-0.253
25,ATCGCTGC,-0.0116

row,Sequence,PBM E-score
1,ATGCAATG,0.0959
2,GAAACGCC,-0.163
3,AGTTTCGG,-0.00726
4,TGCAGCAA,0.114
5,CCCTCGGA,0.0808
6,CAGGCCGA,0.0296
7,ACAACGAT,0.0372
8,CTTCTCAC,-0.148
9,CGACCCAG,0.0508
10,AGCCGGCG,0.0432
11,ACACGACA,0.0664
12,TCCGTAAA,-0.156
13,GTAGAGCA,-0.167
14,ACTCTGGG,0.0639
15,AGCGCTCG,-0.0722
16,CCTCGCAC,0.0782
17,TCTGACCA,0.0347
18,GCGGCGAC,0.116
19,ACAACCAC,0.246
20,CCACCGGA,0.215
21,ATCATTGC,0.159
22,ACATGGCT,0.0966

# Reference: the supplement of paper PMC3334620
